Results reported in PubChem BioAssay AID488969 (Vanderbilt High Throughput Screening Facility, 2010).
Whole data set: some 110,000 compounds, median “z-score” near -0.1, cut for the highest 2% near 2. This is one part of the list.

Each compound was assayed against Metabotropic glutamate receptor 8 (Rattus norvegicus) (UniProt P70579) (assay: mGluR8 Gi/Go-coupled signaling modulation – cell-based, rat, thallium flux, HTS, primary screen (AID 488969)). Settings: HEK293 rat mGluR8, GIRK (G protein-gated inwardly rectifying potassium channel) thallium flux, FluoZin2; at 10 µM; stronger effect = higher value; submaximal glutamate (EC20) added with thallium.
UniProt P70579, sequence (P70579 whole entry, looked up): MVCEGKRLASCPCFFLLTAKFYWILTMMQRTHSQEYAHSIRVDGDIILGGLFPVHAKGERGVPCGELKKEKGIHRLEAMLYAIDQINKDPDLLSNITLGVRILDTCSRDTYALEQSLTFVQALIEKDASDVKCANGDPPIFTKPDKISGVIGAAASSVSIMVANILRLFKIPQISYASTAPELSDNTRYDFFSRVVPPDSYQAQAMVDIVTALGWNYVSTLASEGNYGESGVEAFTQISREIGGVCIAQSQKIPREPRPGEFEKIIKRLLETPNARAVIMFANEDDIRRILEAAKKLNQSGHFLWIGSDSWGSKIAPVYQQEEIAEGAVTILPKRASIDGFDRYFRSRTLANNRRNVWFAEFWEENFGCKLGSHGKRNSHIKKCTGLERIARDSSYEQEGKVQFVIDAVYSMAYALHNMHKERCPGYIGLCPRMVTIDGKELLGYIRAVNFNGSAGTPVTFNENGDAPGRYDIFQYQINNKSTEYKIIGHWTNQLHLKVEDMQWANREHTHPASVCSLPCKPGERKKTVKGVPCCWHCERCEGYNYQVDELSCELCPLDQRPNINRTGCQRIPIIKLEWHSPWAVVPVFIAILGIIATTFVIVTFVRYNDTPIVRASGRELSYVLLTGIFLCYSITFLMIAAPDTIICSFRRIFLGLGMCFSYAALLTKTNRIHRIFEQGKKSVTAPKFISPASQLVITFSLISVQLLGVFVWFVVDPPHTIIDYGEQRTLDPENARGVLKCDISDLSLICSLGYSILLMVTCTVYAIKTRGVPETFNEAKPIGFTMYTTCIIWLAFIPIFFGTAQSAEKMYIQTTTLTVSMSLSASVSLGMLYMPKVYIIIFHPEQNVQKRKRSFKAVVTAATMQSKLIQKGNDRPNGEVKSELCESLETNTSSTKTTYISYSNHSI

Row | Structure (SMILES) | z-score
1 | CCOC(=O)c1ccc(NS(=O)(=O)c2cccc3nsnc23)cc1 | 0.11
2 | CCCc1nnc(SCc2ccc(C(=O)OC)o2)n1N | 0.907
3 | COCC(=O)N/N=C/c1ccc(Sc2nc3ccccc3s2)o1 | -1.01
4 | Cc1cccc(-n2c(C)nc3c(cnn3-c3ccc(F)cc3)c2=O)c1 | 1.02
5 | COc1ccccc1CN(Cc1nc2ccccc2c(=O)[nH]1)C(=O)Nc1ccccc1 | -0.0817
6 | CCN1CCN(C(=S)c2ccc(SC)cc2)CC1 | -0.71
7 | CC(=O)N(CN1C(=O)c2ccccc2C1=O)c1ccccc1 | 0.329
8 | CCOc1cc(/C=C2\NC(=S)N(c3c(C)n(C)n(-c4ccccc4)c3=O)C2=O)ccc1O | 0.0819
9 | O=C(/C=C/c1ccccc1Cl)N(Cc1ccccc1)C1CCS(=O)(=O)C1 (stereo unspecified) | -1.26
10 | c1ccc(-n2c(-c3ccncc3)nnc2-c2ccco2)cc1 | 0.294
11 | COC(=O)[C@H](C)NC(=O)Nc1ccc(OC(F)(F)F)cc1 | -0.197
12 | Cc1nc(C)c(C(=O)Nc2ccc(C)c(F)c2)o1 | 0.227
13 | Cc1ccc(C(=O)NNC(=O)C2CCN(c3nccc(C)n3)CC2)cc1 | -0.385
14 | COCc1nc(-c2ccc(-c3ccc(C)cc3)nc2OC)no1 | 0.1
15 | CCOC(=O)c1sc(NC(=O)c2cncc(Br)c2)nc1C | -0.223
16 | Cc1cc(Nc2ccccc2)nc(N2CCOCC2)n1 | -0.0604
17 | Cc1cc(C)c(C#N)c(N2CCOCC2)n1 | 0.142
18 | CCOC(=O)C(C)Oc1cccc2c(=O)n(CC(=O)Nc3cccc(OC)c3)ccc12 (stereo unspecified) | 0.0424
19 | CCOC(=O)c1cn(CC(=O)Nc2ccc(CC)cc2)nn1 | 0.223
20 | c1coc(-c2nnc3sc(Cc4cccs4)nn23)c1 | -0.366
21 | N#Cc1cc(-c2ccccc2)nnc1Oc1ccccc1 | -0.14
22 | CCN(CC)c1ccc(N2C(=O)/C(=C/c3cccs3)SC2=S)cc1 | 0.0712
23 | CC(C)Cc1nc2oc3c(NCc4cccnc4)ncnc3c2c2c1CCC2 | -0.161
24 | CCOc1cc(S(=O)(=O)Nc2ccc(Cl)cn2)ccc1F | 0.00716

Row | Structure (SMILES) | z-score
25 | CCCN(CCC)C(=O)C1CCN(c2cc(C)nc3c(-c4ccc(OC)c(OC)c4)c(C)nn23)CC1 | -0.644
26 | CCN(CC)S(=O)(=O)c1ccc(C(=O)NCc2ccc(C)cc2)cc1 | 0.0057
27 | N#CCC(=N)N1CCN(c2cccc(Cl)c2)CC1 | -0.0514
28 | COc1ccc(CN2CC(C(=O)NCCCN3CCCCCC3)CC2=O)cc1 (stereo unspecified) | 1.42
29 | Cc1ccc(S(=O)(=O)NCCC(C)C)cc1[N+](=O)[O-] | -0.28
30 | Cc1ccc(C2CC(=O)NC(SCC(=O)Nc3nccs3)=C2C#N)cc1 (stereo unspecified) | -0.395
31 | O=C(NCC1CCCO1)C1CCN(S(=O)(=O)N2CCCC2)CC1 (stereo unspecified) | -0.0936
32 | O=C(c1ccc(S(=O)(=O)N2CCCCC2)cc1)N1CCN(c2ccccc2F)CC1 | -0.401
33 | CCC(C)(C)NC(=O)C(c1ccc(F)cc1)N(Cc1ccco1)C(=O)c1snc(C(N)=O)c1N (stereo unspecified) | -0.00804
34 | CCOCCCNCC(O)c1ccccc1 (stereo unspecified) | -0.41
35 | Cc1ccc(CN2C(=O)CCC2C(=O)NCCCN2CCCC(C)C2)cc1 (stereo unspecified) | -0.173
36 | Cc1ccccc1SCC(=O)N1CCN(c2ccc(C(F)(F)F)cn2)CC1 | -0.139
37 | CC1CCN(CC(O)COc2ccc(F)cc2)CC1 (stereo unspecified) | -0.0578
38 | O=C(Nc1ccccc1C(F)(F)F)c1cc(-c2ccc(O)cc2)on1 | 0.798
39 | CC(C)(C)c1ccc(OCC(=O)N/N=C/c2cc(Br)ccc2OC(=O)c2ccco2)cc1 | 0.242
40 | CN(C)CCCNC(=O)CCC1CCCCC1 | 0.923
41 | COc1cc(OC)c(NC(=O)c2c(-c3ccccc3)noc2C)cc1Cl | -0.878
42 | COc1ccc(OC)c(NC(=O)COC(=O)Cc2ccc(-c3ccccc3)cc2)c1 | 0.0716
43 | CC1=CC2=NC(=O)/C(=C\c3cccn3CCOc3cccc(C)c3)C(=N)N2O1 | -0.65
44 | CCC(=O)Nc1ccc2c(c1)nc(CN1CCN(C(C)=O)CC1)n2C | 0.096
45 | Cc1ccc2c(c1)N(CC(=O)NCc1cccs1)C(=O)C(C)O2 (stereo unspecified) | -0.886
46 | CCc1nnc(NC(=O)CSc2nc(-c3ccccc3)nc3ccccc23)s1 | -0.175
47 | C=CCn1c(=O)/c(=C2/SC(C)=C(C)N2CC)s/c1=C1/C(=O)N(C)C(=S)N1c1ccccc1 | 0.574
48 | Cn1c(=O)[nH]c(=O)c2c1nc(Br)n2CCCCSc1nc2ccccc2o1 | -0.162

Row | Structure (SMILES) | z-score
49 | Cc1ccccc1CSc1nnc(NC(=O)C2COc3ccccc3O2)s1 (stereo unspecified) | 0.0129
50 | CN(CCNC(=O)CN1CCN(Cc2ccccc2Cl)C1=O)Cc1ccccc1 | -0.17
51 | O=C1NCCN1C(=O)C12CC3CC(CC(C3)C1)C2 | 0.994
52 | OCCN1CCN(c2nc(NCc3ccco3)c3ccccc3n2)CC1 | -0.079
53 | CC1(c2cnc(Nc3ccccc3)s2)CCC(=O)O1 (stereo unspecified) | -0.037
54 | CC1=C(C(=O)Nc2ccccc2)C(c2ccco2)C(C#N)=C(SCC(N)=O)N1 (stereo unspecified) | -0.283
55 | Cc1cccc(Nc2nc3ccccc3s2)c1C | 0.572
56 | Cc1cc(C(F)F)n2nc(C(=O)Nc3ccc(S(=O)(=O)NC45CC6CC(CC(C6)C4)C5)cc3)nc2n1 | 0.0197
57 | Cc1cnc(C(=O)Nc2cccc3ncccc23)cn1 | 0.761
58 | Cc1cc(C)cc(-n2c(C)cc(/C=N/NC(=O)c3cccc([N+](=O)[O-])c3C)c2C)c1 | -0.128
59 | CCCCn1c(NC(=O)c2ccccc2Cl)c(C#N)c2nc3ccccc3nc21 | -0.783
60 | CC1CC(C(F)(F)F)n2nc(C(=O)O)cc2N1 (stereo unspecified) | 0.897
61 | C(#Cc1ccccc1)C[N+]1(CC#Cc2ccccc2)CCCC1 | -0.343
62 | Cc1cc(NC(=O)c2cncc(Br)c2)no1 | -0.316
63 | CC1(C)CC2CC(C)(CN2C(=O)COC(=O)c2ccc(Cl)cc2N)C1 (stereo unspecified) | 0.198
64 | CNc1cc(-n2nc(C)cc2-c2ccccc2)ncn1 | -0.127
65 | Cc1cc(C(=O)CSc2nc(N)cc(=O)[nH]2)c(C)n1-c1cccc(F)c1 | -0.14
66 | CC(=O)Cc1nsc(NC(=O)c2cc(-c3ccc(Cl)c(Cl)c3)oc2C)n1 | -0.22
67 | C/C(=N/OCO/N=C(\C)c1ccccc1F)c1ccccc1F | -0.559
68 | COC(=O)C(=Cc1ccc(OCc2ccc([N+](=O)[O-])cc2)c(OC)c1)C(=O)OC | -0.0754
69 | Cc1ccc(C)c(NC(=O)C(Sc2ncnc3ccccc23)c2ccccc2)c1 (stereo unspecified) | -0.161
70 | CCOC(=O)c1cccc(NS(=O)(=O)c2ccc(NC(C)=O)cc2)c1 | -0.337
71 | O=C(Cn1c(=O)n(CC(=O)NCc2ccccc2)c2ccccc21)NCc1ccccc1 | -0.0235
